# Laboratory results from publication PMC12136788.
# This is one part of the list.
# B1: chr1:33856384:33856385:-_ENSMUSG00000042197_ENSMUST00000044455|mus_mus|FALSE|FALSE (ssRNA)
# RNA: GGGAGUUCUACAGUCCGACGAUCUAGUGCUGUCUUGAAAAUACUUAAGAGCUGUACAAUAAUGUCAAAAUUAUUAAAGUGCUAAAUUUUCUGUGCUUUUUUGUUGCCGUUUAAUAUAAAGCGGGGAUUGAUACAAAUAAAUUACAACAGAGGAUUGAGCAUCA
# B2: chr7:23164667:23164668:+_ENSG00000122550_ENST00000322275|hu_hu|motif|central (ssRNA)
# RNA: GGGAGUUCUACAGUCCGACGAUCCACAGGUUCAAUCUGAUAUUGGUUUGCUGCAUCCAGCAAAGACUGAACAUUGUUGCGGUUCACGGAAAUUCUAGCAGUAUAAGCAAAUUCCACCAGUUGUUCAAUAAUAUCAGGUUCAGCCAACAGAGGAUUGAGCAUCA
# B3: chr11:64088491:64088492:+_ENSG00000126432_ENST00000265462|hu_hu|FALSE|FALSE (ssRNA)
# RNA: GGGAGUUCUACAGUCCGACGAUCCACCAUGGAGAACCUCUUGAGACGUCGAUUCCCAAAGAUGGACACCAGCGAAUCAUCUAGUAAUAAGUCUGUCUCCUUCCCAAAGGCCCCAGUGGGAUCAGCCAGGAGCCGAACCUUGCCCAACAGAGGAUUGAGCAUCA
# B4: chr4:140556289:140556290:+_ENSMUSG00000036622_ENSMUST00000037055|mus_mus|mus_mus_mus_hu_False|28_28 (ssRNA)
# RNA: GGGAGUUCUACAGUCCGACGAUCGAUGGAGCUCACCAGGCCCCCUUUUGCCGUGCAGAACCCUGUGCGGGUCACCACUGCCAGGACGUGCGGUCCCACAUAGGCCCGGGCCUGCAGGAUGAGGGUCCCGCAGAAGAGUGUGUGCAACAGAGGAUUGAGCAUCA
# B5: 56912192_56916801_1919_3pUTR_ENSMUSG00000055296_ENSMUST00000068792|mouse|control|control (ssRNA)
# RNA: GGGAGUUCUACAGUCCGACGAUCGUUGAGAAGGGCAGUGCCACUGUAGAAGAGGAUGGUCAGCAGGGUGGUGACUGUGGUGAACAGCAGGCUCACGUUCCGGCUCAUAACAAUCCACAGAGACUCCAGGAUCGAAAGAAAAGUCAACAGAGGAUUGAGCAUCA
# B6: chr2:25464519:25464520:-_ENSG00000119772_ENST00000380746|hu_hu|FALSE|FALSE (ssRNA)
# RNA: GGGAGUUCUACAGUCCGACGAUCGUACAUGAUCUUCCCCUGGUGCCGCACCAUGCCCACCGUGAUGGAGUCCUCACACACCUCCGAGGCAAUGUAGCGGUCCACCUGAAUGCCCAAGUCCUUCAGCACCAGGAGCCCUGUAGCCAACAGAGGAUUGAGCAUCA
# B7: chr7:141441981:141441982:+_ENSG00000106028_ENST00000265304|hu_mus|hu_hu_hu_mus_False|48_58 (ssRNA)
# RNA: GGGAGUUCUACAGUCCGACGAUCCUCAUGUCUUACAAACUGACGAAAUACCUGUAACACAGGUCUUCGAAACAUGGCUUCUAUUUUCUUUUCUUACUAAUCUUUAGGCUUUUCCUAAAGGAAAGAAAGAAAAGAGAAAAAUGACAACAGAGGAUUGAGCAUCA
# B8: chr5:128448638:128448639:+_ENSG00000066583_ENST00000173527|hu_mus|hu_hu_hu_mus_False|18_98 (ssRNA)
# RNA: GGGAGUUCUACAGUCCGACGAUCGGCACUCGCCUUAAUUAGAUUCUGAAUUUCCUUGAACUUCGGGUGGUCUUUGUCAGCCACCAGCUGUAGGAGGACAGCCUCACUAGUGGUCACUAUGAUCCCGGUGCGGGCAAGACGCUCCAACAGAGGAUUGAGCAUCA
# B9: chr4:17845017:17845018:+_ENSG00000109805_ENST00000514176|hu_mus|hu_hu_hu_mus_False|28_98 (ssRNA)
# RNA: GGGAGUUCUACAGUCCGACGAUCGCUCUCUUAACUUGAUCUUCAUUUAAGGAACUCUGCAAGGUUAAGUUUACUUUUCUGUAGCGCAGCUGUUUUGGCUCGUCUGGUAGUCUCAUCCUUCAUUUCUGAUGGUGGUUCAUGAUCCAACAGAGGAUUGAGCAUCA
# B10: chr3:134197472:134197473:-_ENSG00000129055_ENST00000354910|hu_hu|FALSE|FALSE (ssRNA)
# RNA: GGGAGUUCUACAGUCCGACGAUCAGGAGCCAAGCGUCAGUUUCCAAUGGGGGGAACAUUCUCAUGGAGGUACUGUAAGGCUAAGUCUGUCCACUUCAUUUCUUGUUCUUUGACAGAUUCUGUGGUGCCACCAUUGUCUUGUUCCAACAGAGGAUUGAGCAUCA
# B11: chr11:102151369:102151370:-_ENSMUSG00000059995_ENSMUST00000137387|mus_hu|motif|central (ssRNA)
# RNA: GGGAGUUCUACAGUCCGACGAUCCGGCUAGAGGCCUGCUGAGAUCCUCCUCUCCCUCUGGCCUCCUCUCGGAGGGAGACGGCGGAGGGCCAAGAAUAGAGAAGCCCAGGCCCCGGGAUUUAUUCUAACUCCUGCCAAAAUCUGCAACAGAGGAUUGAGCAUCA
# B12: chr8:74858975:74858976:-_ENSG00000154582_ENST00000284811|hu_mus|hu_hu_hu_mus_True|1_38 (ssRNA)
# RNA: GGGAGUUCUACAGUCCGACGAUCGACCUUGUAGGUAAAAUACAUGCACACUUUUGAUAGCACAUGUGAGGGGAUCUCUCUAAAAUUGACCUCGUUGGUUUCGUUCUCAGCAAACUGACCUGGACCACUCAACAUAGCUUUUAUCAACAGAGGAUUGAGCAUCA
# B13: chr18:38477064:38477065:+_ENSMUSG00000060450_ENSMUST00000072376|mus_mus|FALSE|FALSE (ssRNA)
# RNA: GGGAGUUCUACAGUCCGACGAUCGCUCUUCACAGGUUUAGAGAGCAUUCAUGAGGAAUACACUGGGCUUUUUCCUACUCUAGUGAGGAAAUAAAGACACACACUGCUGGGAUCAACAUUAAAACUGUCCUUGCCCACAAGAGGCAACAGAGGAUUGAGCAUCA
# B14: chr11:9308113:9308114:-_ENSG00000166471_ENST00000528080|hu_hu|FALSE|FALSE (ssRNA)
# RNA: GGGAGUUCUACAGUCCGACGAUCAUUAGGCAGAAAUGGUGUUAUUCUCAAAAAUAUAAUGUAGUUAAUGAGAUGUUCUCUAUGACGUUCAACCUGCUGUGACCAUUUUACUGCUUUCUCUGUUAGGUAUUUGUAUACAACUGGCAACAGAGGAUUGAGCAUCA
# B15: 79828338_79828458_2081_3pUTR_ENSMUSG00000043881_ENSMUST00000061222|mouse|control|control (ssRNA)
# RNA: GGGAGUUCUACAGUCCGACGAUCGUGAUGAAACUCUGACCAGGUUCAAGACAGGAAGGAUAAACUCGAUCACACAGGCAAAUAAAGCCAGAGUCAAACUGCAAAAGGCCUAACAUGGUGCCUAUAUUAAUCCAUUGGUCUUCCCAACAGAGGAUUGAGCAUCA
# B16: chr2:217012863:217012864:+_ENSG00000079246_ENST00000392132|hu_mus|FALSE|FALSE (ssRNA)
# RNA: GGGAGUUCUACAGUCCGACGAUCGAGUGGACUCUCACAUUUUGCUUUCAUCUCAGUGGGGGGAUCCAGCAUAUUCAAAAUGUGCUGCUGAAUCGGGGGCAGCCGCUCCUGGAGAUGUAAGGCUCUAUGCAGCAGACACUGGUACAACAGAGGAUUGAGCAUCA
# B17: chr12:125396312:125396313:-_ENSG00000150991_ENST00000546120|hu_hu|FALSE|FALSE (ssRNA)
# RNA: GGGAGUUCUACAGUCCGACGAUCAACUUAGACACCCCCCCUCAAGCGCAGGACCAAGUGCAGAGUGGACUCUUUCUGGAUGUUGUAGUCAGACAGGGUGCGUCCAUCUUCCAGCUGUUUCCCAGCAAAGAUCAACCUCUGCUGCAACAGAGGAUUGAGCAUCA
# B18: chr19:37619525:37619526:+_ENSG00000197050_ENST00000337995|hu_hu|FALSE|FALSE (ssRNA)
# RNA: GGGAGUUCUACAGUCCGACGAUCUUCCUUACAUUGAUAUGGUUUCUCACCAGUAUGAAUUCUCUGAUGUUGUAUAAGUAGUAAGCCACGCGCAAAGGCCUUUCCACAUUCAUUACACACAUAGGGUUUCUCACCAGUGUGAAGCAACAGAGGAUUGAGCAUCA
# B19: chr2:130910683:130910684:-_ENSG00000136699_ENST00000351288|hu_hu|FALSE|FALSE (ssRNA)
# RNA: GGGAGUUCUACAGUCCGACGAUCGGAACACAGAGCCGCCAUCUGUCCUGCAAAUCUGUGGUUGAUGGCAGACGACAGCCUAAAGAGUGUGCGGACCAAGCUGGCGAUCUCAUAGCUCCGGAUGGGCUGCAGCUCCGGGUCCCCCAACAGAGGAUUGAGCAUCA
# B20: chr9:95013113:95013114:-_ENSG00000196305_ENST00000443024|hu_hu|hu_hu_hu_mus_False|88_98 (ssRNA)
# RNA: GGGAGUUCUACAGUCCGACGAUCCUCAGUCAGAAAGGGUGUGUAGGGAGCCAUAAGUCUGCACAGAGAAAGCAGGACACUGAACAGUGUCUCCAGAGCCAUGACACAGUCUUCCACCCCACUCUCACCCUUUAACCUCCUCCUCAACAGAGGAUUGAGCAUCA
# B21: chr8:22473583:22473584:+_ENSG00000158941_ENST00000389279|hu_mus|FALSE|FALSE (ssRNA)
# RNA: GGGAGUUCUACAGUCCGACGAUCAGGUUCAGGAGGAGACACAACUUUUUCUGGAAGGCUCAGCAGCGUCUUAUAAAUUCUAUAGCCAAAAUCCCUCUGCAGCAUCUCUACAAACAGCUCAGCCAGCACCACUACCUCAAAAGACAACAGAGGAUUGAGCAUCA
# B22: chr7:129114946:129114947:-_ENSMUSG00000034951_ENSMUST00000057576|mus_hu|FALSE|FALSE (ssRNA)
# RNA: GGGAGUUCUACAGUCCGACGAUCAUCAACAAGCAUCAUUAAGCUGUUCUGCAUACCUGUUAGCUUGGCAGAAAUCACAGCUAUGUCCUGAGUCUUAAAUGUCUCCUCAAUAUCGGCGCUCAACGUGCUCCACUUAUCUGCUUCCAACAGAGGAUUGAGCAUCA
# Biological target: T1, UNK ZnF1-3 (human, UniProt Q9C0B0 31-174)
# T1 sequence: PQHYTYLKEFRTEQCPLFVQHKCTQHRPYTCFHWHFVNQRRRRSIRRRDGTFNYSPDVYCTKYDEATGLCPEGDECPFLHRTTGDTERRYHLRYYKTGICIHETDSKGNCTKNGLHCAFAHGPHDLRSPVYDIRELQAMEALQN
# Assay: nsRBNS (natural sequence RNA bind-n-seq); RBNS binding buffer (assumed for nsRBNS): 25 mM Tris pH 7.5, 150 mM KCl, 3 mM MgCl2, 0.01% Triton X-100, 500 ug/ml BSA, 20 U/ml SUPERase-In, 4 C; UNK is unkempt and MSI1 is Musashi-1; names of the RNAs are library labels; protein concentration not given here; high values mean tight binding
row,Binder,binding signal
1,B1,2.15 enrichment R
2,B2,1.48 enrichment R
3,B3,1.43 enrichment R
4,B4,0.73 enrichment R
5,B5,1.8 enrichment R
6,B6,1.09 enrichment R
7,B7,0.359 enrichment R
8,B8,0.458 enrichment R
9,B9,0.391 enrichment R
10,B10,0.544 enrichment R
11,B11,1.32 enrichment R
12,B12,0.828 enrichment R
13,B13,0.949 enrichment R
14,B14,1.86 enrichment R
15,B15,1.27 enrichment R
16,B16,1.29 enrichment R
17,B17,0.881 enrichment R
18,B18,0.772 enrichment R
19,B19,0.822 enrichment R
20,B20,1.16 enrichment R
21,B21,2.18 enrichment R
22,B22,0.811 enrichment R
